# Patent publication US20250368649A1, “TETRAHYDROPYRIDOPYRIMIDINE PAN-KRAS INHIBITORS” (Mirati Therapeutics, Inc., priority 2022, published 2025)
# What was measured:
# [1] = test system: H358 cells; assay: Inhibition of KRas-mediated phosphorylation of ERK (Cisbio HTRF pERK), H358 cells; type: cell-based; conditions: Homo sapiens; for inhibition at 0.1 µM: NCI-H358, single point at 100 nM, 3 hrs compound incubation; for IC50: NCI-H358, 3 h, 3 hr compound incubation
# [2] = test system: ASPC1 cells; assay: Inhibition of KRas-mediated phosphorylation of ERK (Cisbio HTRF pERK), ASPC1 cells; type: cell-based; conditions: Homo sapiens, AsPC-1 cells; for IC50: ASPC1, 3 h, 3 hr compound incubation; for inhibition at 0.1 µM: ASPC1, single point at 100 nM, 3 hrs compound incubation
# [3] = test system: H727 cells; assay: Inhibition of KRas-mediated phosphorylation of ERK (Cisbio HTRF pERK), H727 cells; type: cell-based; conditions: Homo sapiens; for IC50: NCI-H727, 3 h, 3 hr compound incubation; for inhibition at 0.1 µM: NCI-H727, single point at 100 nM, 3 hrs compound incubation
# [4] = test system: A549 cells; assay: Inhibition of KRas-mediated phosphorylation of ERK (Cisbio HTRF pERK), A549 cells; type: cell-based; conditions: Homo sapiens; for inhibition at 0.1 µM: single point at 100 nM, 3 hrs compound incubation; for IC50: A549, 3 h, 3 hr compound incubation
# [5] = test system: H460 cells; assay: Inhibition of KRas-mediated phosphorylation of ERK (Cisbio HTRF pERK), H460 cells; type: cell-based; conditions: Homo sapiens; for inhibition at 0.1 µM: NCI-H460, single point at 100 nM, 3 hrs compound incubation; for IC50: NCI-H460, 3 h, 3 hr compound incubation
# [6] = test system: HCT116 cells; assay: Inhibition of KRas-mediated phosphorylation of ERK (Cisbio HTRF pERK), HCT116 cells; type: cell-based; conditions: Homo sapiens; for inhibition at 0.1 µM: HCT-116, single point at 100 nM, 3 hrs compound incubation; for IC50: HCT-116, 3 h, 3 hr compound incubation
# [7] = test system: MKN1 cells; assay: Inhibition of KRas-mediated phosphorylation of ERK (Cisbio HTRF pERK), MKN1 cells; type: cell-based; conditions: Homo sapiens, MKN-1, 3 hour compound incubation
# Experimental: (§1) Inhibition of KRas Phosphorylation of ERK (HTRF) by Exemplary Compounds of Formula (I) Cisbio HTRF Advanced pERK Assay Catalog #64AERPEH • Cells: MKN1, PSN1 • Procedure: • Day 1: Seed 6,000 cells/well -25 µl/well in 384-well white solid bottom plate; RPM1_10% FBS.
# [8] = test system: PSN1 cells; assay: Inhibition of KRas-mediated phosphorylation of ERK (Cisbio HTRF pERK), PSN1 cells; type: cell-based; conditions: Homo sapiens, PSN1, 3 h
# Experimental: as §1
# [9] = target: KRas G12A (Homo sapiens, UniProt P01116, G12A); type: binding; conditions: for IC50: TR-FRET displacement, read-out: Binding to KRas (IC50 nM) G12A
# [10] = target: KRas G12C (Homo sapiens, UniProt P01116, G12C); type: binding; conditions: for IC50: TR-FRET displacement, read-out: Binding to KRas (IC50 nM) G12C
# [11] = target: KRas G12S (Homo sapiens, UniProt P01116, G12S); type: binding; conditions: for IC50: TR-FRET displacement, read-out: Binding to KRas (IC50 nM) G12S
# [12] = target: KRas WT (Homo sapiens, UniProt P01116); assay: KRas binding assay (TR-FRET displacement), KRas WT; conditions: for IC50: TR-FRET displacement
# [13] = target: KRas Q61H (Homo sapiens, UniProt P01116, Q61H); assay: KRas binding assay (TR-FRET displacement), KRas Q61H; conditions: for IC50: TR-FRET displacement
# [14] = target: KRas G13D (Homo sapiens, UniProt P01116, G13D); type: binding; conditions: for IC50: TR-FRET displacement, read-out: Binding to KRas (IC50 nM) G13D
# [15] = 3 hour compound incubation, Cisbio pERK HTRF
IC50 ([2]; Cisbio pERK HTRF),IC50 ([3]; Cisbio pERK HTRF),IC50 [7],"IC50 [8, 15]",Compound,inhibition at 0.1 µM [1],inhibition at 0.1 µM [4],inhibition at 0.1 µM [5],inhibition at 0.1 µM [6],also measured
484 nM,773 nM,,,"CCc1c(F)ccc2cc(O)cc(N3CCc4c(nc(OC[C@@]56CCCN5C[C@H](F)C6)nc4N4CCCn5nc(CN(C)C(=O)NC)cc5C4)C3)c12 [Example 309, 1-((5-(7-(8-ethyl-7-fluoro-3-hydroxynaphthalen-1-yl)-2-(((2R,7aS)-2-fluorohexahydro-1H-pyrrolizin-7a-yl)methoxy)-5,6,7,8-tetrahydropyrido[3,4-d]pyrimidin-4-yl)-5,6,7,8-tetrahydro-4H-pyrazolo[1,5-a][1,4]diazepin-2-yl)methyl)-1,3-dimethylurea]",12%,7%,6%,-8%,
2 nM,5 nM,13.5 nM,3790 nM,"CCc1c(F)ccc2cc(O)cc(N3CCc4c(nc(OC[C@@]56CCCN5C[C@H](F)C6)nc4N4CCCn5nc(C(=O)NC)cc5C4)C3)c12 [Example 400, 5-(7-(8-ethyl-7-fluoro-3-hydroxynaphthalen-1-yl)-2-(((2R,7aS)-2-fluorohexahydro-1H-pyrrolizin-7a-yl)methoxy)-5,6,7,8-tetrahydropyrido[3,4-d]pyrimidin-4-yl)-N-methyl-5,6,7,8-tetrahydro-4H-pyrazolo[1,5-a][1,4]diazepine-2-carboxamide]",,,,,"inhibition at 0.01 µM ([9]; single point, 10 nM compound, read-out: Binding to KRas (% inhibition at 10 nM) G12A): 96%; inhibition at 0.01 µM ([10]; single point, 10 nM compound, read-out: Binding to KRas (% inhibition at 10 nM) G12C): 99%; inhibition at 0.01 µM ([11]; single point, 10 nM compound, read-out: Binding to KRas (% inhibition at 10 nM) G12S): 99%; inhibition at 0.01 µM ([12]; single point, 10 nM compound): 96%; IC50 ([4]; Cisbio pERK HTRF): 8 nM; inhibition at 0.01 µM ([13]; single point, 10 nM compound): 96%; inhibition at 0.01 µM ([14]; single point, 10 nM compound, read-out: Binding to KRas (% inhibition at 10 nM) G13D): 95%; IC50 ([5]; Cisbio pERK HTRF): 32 nM; IC50 ([6]; Cisbio pERK HTRF): 94 nM"
2800 nM,4340 nM,,,"CCSc1ccc2cc(O)cc(N3CCc4c(nc(OC[C@@]56CCCN5C[C@H](F)C6)nc4N4CCCC5(CNS(=O)(=O)N5)C4)C3)c2c1F (stereo partly drawn) [Example 510, 7-(7-(7-(ethylthio)-8-fluoro-3-hydroxynaphthalen-1-yl)-2-(((2R,7aS)-2-fluorohexahydro-1H-pyrrolizin-7a-yl)methoxy)-5,6,7,8-tetrahydropyrido[3,4-d]pyrimidin-4-yl)-2-thia-1,3,7-triazaspiro[4.5]decane 2,2-dioxide]",-5%,-1%,9%,0%,IC50 [9]: 107 nM; IC50 [10]: 80 nM; inhibition at 0.1 µM [2]: 16%; inhibition at 0.1 µM [3]: 19%; IC50 [11]: 89 nM; IC50 [12]: 107 nM; IC50 [13]: 120 nM; IC50 [14]: 89 nM
1740 nM,907 nM,,,"O=C1NC(=O)C2(CCCN(c3nc(OC[C@@]45CCCN4C[C@H](F)C5)nc4c3CCN(c3c5ccccc5cc5[nH]ncc35)C4)C2)N1 (stereo partly drawn) [Example 472, 7-(7-(1H-benzo[f]indazol-4-yl)-2-(((2R,7aS)-2-fluorohexahydro-1H-pyrrolizin-7a-yl)methoxy)-5,6,7,8-tetrahydropyrido[3,4-d]pyrimidin-4-yl)-1,3,7-triazaspiro [4.5]decane-2,4-dione]",25%,-2%,19%,8%,IC50 [9]: < 2 nM; IC50 [10]: 2 nM; IC50 [11]: 3 nM; IC50 [12]: < 2 nM; IC50 [13]: < 2 nM; IC50 [14]: 2 nM

# Further lines, the molecule ahead of its results:
Compound,IC50 ([2]; Cisbio pERK HTRF),IC50 ([3]; Cisbio pERK HTRF),IC50 [7],"IC50 [8, 15]",inhibition at 0.1 µM [1],inhibition at 0.1 µM [4],inhibition at 0.1 µM [5],inhibition at 0.1 µM [6],also measured
"CCc1c(F)ccc2cc(O)cc(N3CCc4c(nc(OC[C@@]56CCCN5C[C@H](F)C6)nc4N4CCCn5nc(C(=O)N6C7CC6CN(C)C7)cc5C4)C3)c12 [Example 271, (5-(7-(8-ethyl-7-fluoro-3-hydroxynaphthalen-1-yl)-2-(((2R,7aS)-2-fluorohexahydro-1H-pyrrolizin-7a-yl)methoxy)-5,6,7,8-tetrahydropyrido[3,4-d]pyrimidin-4-yl)-5,6,7,8-tetrahydro-4H-pyrazolo[1,5-a][1,4]diazepin-2-yl)(3-methyl-3,6-diazabicyclo[3.1.1]heptan-6-yl)methanone]",10 nM,18 nM,42.9 nM,> 10000 nM,94%,31%,34%,19%,
"CCc1c(F)ccc2cc(O)cc(N3CCc4c(nc(OC[C@@]56CCCN5C[C@H](F)C6)nc4N4CCCn5nc(C(=O)N6CCN(C7COC7)CC6)cc5C4)C3)c12 [Example 504, (5-(7-(8-ethyl-7-fluoro-3-hydroxynaphthalen-1-yl)-2-(((2R,7aS)-2-fluorotetrahydro-1H-pyrrolizin-7a(5H)-yl)methoxy)-5,6,7,8-tetrahydropyrido[3,4-d]pyrimidin-4-yl)-5,6,7,8-tetrahydro-4H-pyrazolo[1,5-a][1,4]diazepin-2-yl)(4-(oxetan-3-yl)piperazin-1-yl)methanone]",3 nM,8 nM,,3130 nM,,,89%,61%,IC50 ([1]; Cisbio pERK HTRF): 2 nM; inhibition at 0.1 µM [2]: 100%; inhibition at 0.1 µM [3]: 84%; IC50 ([4]; Cisbio pERK HTRF): 19 nM; IC50 ([5]; Cisbio pERK HTRF): 18 nM; IC50 ([6]; Cisbio pERK HTRF): 45 nM
"CCc1c(F)ccc2cc(O)cc(N3CCc4c(nc(OC[C@@]56CCCN5C[C@H](F)C6)nc4N4CCCn5nc(C(=O)N6CCC7(CCCCN7)C6)cc5C4)C3)c12 (stereo partly drawn) [Example 275, (5-(7-(8-ethyl-7-fluoro-3-hydroxynaphthalen-1-yl)-2(((2R,7as)-2-flurohexahydro-1H-pyrrolizin-7a-yl)methoxy)-5,6,7,8-tetrahydropyrido[3,4-d]pyrimidin-4yl)-5,6,7,8-tetrahydro-4H-pyrazolo[1,5-a][1,4]diazepin-2-yl)(2,6-diazaspiro[4.5]decan-2yl)methanone]",26 nM,115 nM,91.3 nM,> 10000 nM,78%,59%,16%,-10%,
"CCc1c(F)ccc2cc(O)cc(N3CCc4c(nc(OC[C@@]56CCCN5C[C@H](F)C6)nc4N4CCCn5nc(C(=O)N6CC[C@@H]7CC[C@H]6C7)cc5C4)C3)c12 [Example 618, ((1S,5S)-2-azabicyclo[3.2.1]octan-2-yl)(5-(7-(8-ethyl-7-fluoro-3-hydroxynaphthalen-1-yl)-2-(((2R,7aS)-2-fluorotetrahydro-1H-pyrrolizin-7a(5H)-yl)methoxy)-5,6,7,8-tetrahydropyrido[3,4-d]pyrimidin-4-yl)-5,6,7,8-tetrahydro-4H-pyrazolo[1,5-a][1,4]diazepin-2-yl)methanone]",,,,,,,,,IC50 [1]: 3 nM; IC50 [2]: 5 nM; IC50 [3]: 4 nM; IC50 [4]: 15 nM; IC50 [5]: 26 nM; IC50 ([8]; 3 hr compound incubation): 1390 nM; IC50 [6]: 59 nM
CCc1c(F)ccc2cc(O)cc(N3CCc4c(nc(OC[C@@]56CCCN5C[C@H](F)C6)nc4N4CCCn5nc(C(=O)N6CC7CCC(C6)N7C)cc5C4)C3)c12 [Example 270],20 nM,106 nM,13.8 nM,> 10000 nM,94%,52%,34%,36%,
